{"sequences": {"note": "Protein sequences, listed by entry. Tags and fused reporters are not part of them.", "UniProt Q6GQQ9": "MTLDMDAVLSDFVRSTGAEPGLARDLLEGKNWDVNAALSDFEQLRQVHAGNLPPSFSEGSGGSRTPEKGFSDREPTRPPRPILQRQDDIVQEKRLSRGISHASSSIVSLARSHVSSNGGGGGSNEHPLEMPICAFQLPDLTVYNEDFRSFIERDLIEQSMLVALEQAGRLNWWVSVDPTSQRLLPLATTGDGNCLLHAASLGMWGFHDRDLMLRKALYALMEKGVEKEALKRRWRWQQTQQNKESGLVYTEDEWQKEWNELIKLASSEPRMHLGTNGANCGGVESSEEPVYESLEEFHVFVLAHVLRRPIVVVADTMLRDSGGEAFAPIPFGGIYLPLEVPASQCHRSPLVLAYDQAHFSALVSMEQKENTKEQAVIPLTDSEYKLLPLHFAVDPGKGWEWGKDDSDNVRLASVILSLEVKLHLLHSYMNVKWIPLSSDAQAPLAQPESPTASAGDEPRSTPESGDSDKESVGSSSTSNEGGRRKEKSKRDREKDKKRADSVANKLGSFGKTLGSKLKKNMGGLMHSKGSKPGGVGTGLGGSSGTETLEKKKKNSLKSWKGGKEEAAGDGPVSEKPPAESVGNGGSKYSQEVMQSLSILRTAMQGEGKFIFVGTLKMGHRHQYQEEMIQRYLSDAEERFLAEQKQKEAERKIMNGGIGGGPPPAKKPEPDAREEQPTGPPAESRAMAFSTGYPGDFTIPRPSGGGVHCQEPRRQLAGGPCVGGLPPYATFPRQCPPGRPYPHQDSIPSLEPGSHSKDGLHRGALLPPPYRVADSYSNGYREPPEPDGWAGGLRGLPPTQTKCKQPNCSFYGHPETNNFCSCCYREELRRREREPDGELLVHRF", "UniProt Q93009": "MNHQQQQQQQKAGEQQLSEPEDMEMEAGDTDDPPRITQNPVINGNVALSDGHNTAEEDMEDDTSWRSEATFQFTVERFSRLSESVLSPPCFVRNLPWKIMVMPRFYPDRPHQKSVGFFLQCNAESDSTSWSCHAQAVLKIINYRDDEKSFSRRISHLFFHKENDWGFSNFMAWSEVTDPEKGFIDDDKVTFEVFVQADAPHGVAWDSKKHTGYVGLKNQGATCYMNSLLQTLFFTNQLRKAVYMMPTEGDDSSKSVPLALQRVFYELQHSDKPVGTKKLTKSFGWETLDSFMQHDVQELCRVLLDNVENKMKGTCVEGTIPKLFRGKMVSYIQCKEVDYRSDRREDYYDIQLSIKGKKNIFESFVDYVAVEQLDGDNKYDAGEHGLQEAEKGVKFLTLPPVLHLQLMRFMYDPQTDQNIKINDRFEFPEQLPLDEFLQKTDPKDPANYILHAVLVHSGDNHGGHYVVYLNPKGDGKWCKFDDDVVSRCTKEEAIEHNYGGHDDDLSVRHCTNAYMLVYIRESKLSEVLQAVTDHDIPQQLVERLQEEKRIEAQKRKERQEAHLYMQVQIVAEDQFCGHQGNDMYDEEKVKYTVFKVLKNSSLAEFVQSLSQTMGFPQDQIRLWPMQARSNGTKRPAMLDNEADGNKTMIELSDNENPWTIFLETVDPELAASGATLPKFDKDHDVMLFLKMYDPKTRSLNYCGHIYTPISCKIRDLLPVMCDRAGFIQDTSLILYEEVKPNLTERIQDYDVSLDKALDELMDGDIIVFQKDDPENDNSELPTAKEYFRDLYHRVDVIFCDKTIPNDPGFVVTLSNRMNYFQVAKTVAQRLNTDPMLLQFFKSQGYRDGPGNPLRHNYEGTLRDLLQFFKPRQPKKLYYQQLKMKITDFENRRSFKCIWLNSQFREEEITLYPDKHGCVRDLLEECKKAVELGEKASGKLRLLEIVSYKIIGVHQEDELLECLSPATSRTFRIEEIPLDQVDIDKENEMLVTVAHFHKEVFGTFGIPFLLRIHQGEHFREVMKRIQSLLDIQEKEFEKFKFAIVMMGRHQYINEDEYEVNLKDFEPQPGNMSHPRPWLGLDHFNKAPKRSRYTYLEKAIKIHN"}, "source": "paper PMC10604658", "binders": {"B1": {"name": "MYC-ETS2 (protein, UniProt P15036 1-469)", "chain": "MNDFGIKNMDQVAPVANSYRGTLKRQPAFDTFDGSLFAVFPSLNEEQTLQEVPTGLDSISHDSANCELPLLTPCSKAVMSQALKATFSGFKKEQRRLGIPKNPWLWSEQQVCQWLLWATNEFSLVNVNLQRFGMNGQMLCNLGKERFLELAPDFVGDILWEHLEQMIKENQEKTEDQYEENSHLTSVPHWINSNTLGFGTEQAPYGMQTQNYPKGGLLDSMCPASTPSVLSSEQEFQMFPKSRLSSVSVTYCSVSQDFPGSNLNLLTNNSGTPKDHDSPENGADSFESSDSLLQSWNSQSSLLDVQRVPSFESFEDDCSQSLCLNKPTMSFKDYIQERSDPVEQGKPVIPAAVLAGFTGSGPIQLWQFLLELLSDKSCQSFISWTGDGWEFKLADPDEVARRWGKRKNKPKMNYEKLSRGLRYYYDKNIIHKTSGKRYVYRFVCDLQNLLGFTPEELHAILGVQPDTED"}}, "assay_in_all_cases": "pull-down; screen: HEK293T cells co-transfected with MYC-ETS2 and each of 59 SFB-tagged human DUBs; DUB pulled down with S-protein agarose beads from NETN lysate (100 mM NaCl, 0.05% NP-40), overnight at 4 °C; bound ETS2 detected by anti-MYC blot", "key": {"[1]": {"target": "T1, SFB-OTUD7A (human) (UniProt Q8TE49)", "T1 sequence": "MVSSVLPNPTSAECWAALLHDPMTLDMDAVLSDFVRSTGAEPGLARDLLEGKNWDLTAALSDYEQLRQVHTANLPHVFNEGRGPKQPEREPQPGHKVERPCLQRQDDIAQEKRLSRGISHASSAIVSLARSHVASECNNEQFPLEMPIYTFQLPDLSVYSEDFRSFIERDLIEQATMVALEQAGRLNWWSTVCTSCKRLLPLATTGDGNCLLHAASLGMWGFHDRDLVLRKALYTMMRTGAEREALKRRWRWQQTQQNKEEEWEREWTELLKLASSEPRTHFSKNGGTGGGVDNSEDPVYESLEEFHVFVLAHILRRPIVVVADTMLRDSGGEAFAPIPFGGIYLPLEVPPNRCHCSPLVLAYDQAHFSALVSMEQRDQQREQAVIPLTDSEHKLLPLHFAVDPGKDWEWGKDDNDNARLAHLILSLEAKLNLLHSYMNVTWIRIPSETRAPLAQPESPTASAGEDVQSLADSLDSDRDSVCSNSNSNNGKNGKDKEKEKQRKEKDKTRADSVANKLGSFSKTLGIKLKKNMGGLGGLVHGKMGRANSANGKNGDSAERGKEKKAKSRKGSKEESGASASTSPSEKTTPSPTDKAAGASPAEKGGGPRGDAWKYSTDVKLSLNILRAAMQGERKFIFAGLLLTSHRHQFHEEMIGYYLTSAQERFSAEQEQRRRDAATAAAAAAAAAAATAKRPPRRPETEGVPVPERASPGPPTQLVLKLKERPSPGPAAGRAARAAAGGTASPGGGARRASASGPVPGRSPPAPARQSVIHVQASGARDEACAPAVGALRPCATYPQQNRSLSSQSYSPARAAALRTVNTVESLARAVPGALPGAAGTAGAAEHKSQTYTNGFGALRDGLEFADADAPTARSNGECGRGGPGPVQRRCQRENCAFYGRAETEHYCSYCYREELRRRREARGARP"}, "[2]": {"target": "SFB-OTUD7B (human) (UniProt Q6GQQ9)"}, "[3]": {"target": "T2, SFB-USP4 (human) (UniProt Q13107)", "T2 sequence": "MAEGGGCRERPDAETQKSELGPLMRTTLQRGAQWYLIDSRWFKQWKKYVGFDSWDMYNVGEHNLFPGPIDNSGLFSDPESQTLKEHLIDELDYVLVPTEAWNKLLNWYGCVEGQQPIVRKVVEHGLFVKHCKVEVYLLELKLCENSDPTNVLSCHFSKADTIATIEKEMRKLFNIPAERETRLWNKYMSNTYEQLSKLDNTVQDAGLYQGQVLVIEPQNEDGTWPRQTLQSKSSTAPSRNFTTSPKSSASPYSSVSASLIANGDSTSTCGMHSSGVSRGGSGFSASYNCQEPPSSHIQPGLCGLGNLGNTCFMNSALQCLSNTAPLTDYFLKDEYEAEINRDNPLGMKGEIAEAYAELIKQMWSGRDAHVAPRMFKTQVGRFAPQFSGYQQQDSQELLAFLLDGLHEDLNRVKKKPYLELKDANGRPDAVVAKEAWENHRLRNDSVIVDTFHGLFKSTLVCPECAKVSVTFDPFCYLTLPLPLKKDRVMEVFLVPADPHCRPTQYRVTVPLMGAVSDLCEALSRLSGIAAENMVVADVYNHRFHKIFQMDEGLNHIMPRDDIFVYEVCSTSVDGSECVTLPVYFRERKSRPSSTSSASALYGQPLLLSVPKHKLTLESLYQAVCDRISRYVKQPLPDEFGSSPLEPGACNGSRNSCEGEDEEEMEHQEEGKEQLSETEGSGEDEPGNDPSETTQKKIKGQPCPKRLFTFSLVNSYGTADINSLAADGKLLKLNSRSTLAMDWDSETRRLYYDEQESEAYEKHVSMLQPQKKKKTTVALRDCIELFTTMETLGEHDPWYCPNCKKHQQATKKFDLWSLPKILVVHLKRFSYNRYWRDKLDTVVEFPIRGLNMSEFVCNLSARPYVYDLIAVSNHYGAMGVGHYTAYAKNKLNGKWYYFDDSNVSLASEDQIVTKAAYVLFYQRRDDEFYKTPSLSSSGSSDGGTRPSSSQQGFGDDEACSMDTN"}, "[4]": {"target": "SFB-USP7 (human) (UniProt Q93009)"}}, "note": "No constants are given. Whether binding was seen depends on the method and setting. Binding seen in cells or lysates may run through a third protein. Some entries that bind do so weakly or less than the wild type. Where a sequence is shown, tags or fusion partners need not be part of it."}
{"binder": "B1", "values": [{"measurement": "binding", "setting": "[1]", "result": "binds"}, {"measurement": "binding", "setting": "[2]", "result": "binds"}, {"measurement": "binding", "setting": "[3]", "result": "binds"}, {"measurement": "binding", "setting": "[4]", "result": "no binding"}]}
